# From publication PMC12820563, “FoxP3 forms a head-to-head dimer in vivo and stabilizes its multimerization on adjacent microsatellites”
# The list shows a part of the results.
# Target: T1, MBP-FoxP1dN (Mus musculus, UniProt P58462 326-579)
# T1 sequence: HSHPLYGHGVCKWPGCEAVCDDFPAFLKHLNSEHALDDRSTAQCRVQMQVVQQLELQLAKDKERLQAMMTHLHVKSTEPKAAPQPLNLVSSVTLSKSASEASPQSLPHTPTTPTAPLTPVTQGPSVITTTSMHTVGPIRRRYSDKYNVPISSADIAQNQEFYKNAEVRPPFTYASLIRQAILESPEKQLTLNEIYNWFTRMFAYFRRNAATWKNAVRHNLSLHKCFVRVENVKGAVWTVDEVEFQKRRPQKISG
# Experiment: PD-seq (MBP pull-down with sequencing); 20 mM Tris-HCl pH 7.5, 100 mM NaCl, 1.5 mM MgCl2, 0.4 uM protein, 0.1 uM dsDNA library, 30 min, room temperature, amylose pull-down; high values mean tight binding
# Conditions: protein: recombinant; tags: His6-MBP; chain copies: 2; dsDNA, one strand shown
# In short: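 In Tris pH 7.5 buffer with NaCl and MgCl2, 0.4 µM His6-MBP-tagged mouse FoxP3 or FoxP1 fragment lacking the N-terminus, from E. coli, met 0.1 µM Klenow-filled double-stranded degenerate DNA library for 30 min at room temperature. Three washes on amylose resin followed capture of the complexes, then proteinase K release of DNA, PCR barcoding and Illumina sequencing. Binding is taken as pooled-replicate reads-per-million enrichment of pull-down relative to input.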
row,Sequence,binding signal
1,GATGATTGTTCTCCCAGCTGATGAATTCCGGATCTCGAGTAAACAAATTTTCCTAATCTTTCTGTTCAAGCGCCATCTAC,0.742 RPM ratio (pull-down/input)
2,GATGATTGTTCTCCCAGCTGATGAATTCCAGGACTCGAGTAAACAAATTTTCCTAATCTTTCTGTTCAAGCGCCATCTAC,0.746 RPM ratio (pull-down/input)
3,GATGATTGTTCTCCCAGCTGATGAATTTAGAGTTTCGAGTAAACAAATTTTCCTAATCTTTCTGTTCAAGCGCCATCTAC,1.01 RPM ratio (pull-down/input)
4,GATGATTGTTCTCCCAGCTGATGAATTAATGGCATCGAGTAAACAAATTTTCCTAATCTTTCTGTTCAAGCGCCATCTAC,1.14 RPM ratio (pull-down/input)
5,GATGATTGTTCTCCCAGCTGATGAATTCTTCCAGTCGAGTAAACAAATTTTCCTAATCTTTCTGTTCAAGCGCCATCTAC,0.776 RPM ratio (pull-down/input)
6,GATGATTGTTCTCCCAGCTGATGAATTTTGATATTCGAGTAAACAAATTTTCCTAATCTTTCTGTTCAAGCGCCATCTAC,1.19 RPM ratio (pull-down/input)
7,GATGATTGTTCTCCCAGCTGATGAATTCCTCAGATCGAGTAAACAAATTTTCCTAATCTTTCTGTTCAAGCGCCATCTAC,0.761 RPM ratio (pull-down/input)
8,GATGATTGTTCTCCCAGCTGATGAATTAACACGATCGAGTAAACAAATTTTCCTAATCTTTCTGTTCAAGCGCCATCTAC,0.998 RPM ratio (pull-down/input)
9,GATGATTGTTCTCCCAGCTGATGAATTATCAACCTCGAGTAAACAAATTTTCCTAATCTTTCTGTTCAAGCGCCATCTAC,0.959 RPM ratio (pull-down/input)
10,GATGATTGTTCTCCCAGCTGATGAATTGGAGCGCTCGAGTAAACAAATTTTCCTAATCTTTCTGTTCAAGCGCCATCTAC,0.802 RPM ratio (pull-down/input)
11,GATGATTGTTCTCCCAGCTGATGAATTATCTGCGTCGAGTAAACAAATTTTCCTAATCTTTCTGTTCAAGCGCCATCTAC,1.08 RPM ratio (pull-down/input)
12,GATGATTGTTCTCCCAGCTGATGAATTGGATAGATCGAGTAAACAAATTTTCCTAATCTTTCTGTTCAAGCGCCATCTAC,0.87 RPM ratio (pull-down/input)
13,GATGATTGTTCTCCCAGCTGATGAATTGTACCAATCGAGTAAACAAATTTTCCTAATCTTTCTGTTCAAGCGCCATCTAC,1.07 RPM ratio (pull-down/input)
14,GATGATTGTTCTCCCAGCTGATGAATTAAGAAAGTCGAGTAAACAAATTTTCCTAATCTTTCTGTTCAAGCGCCATCTAC,0.842 RPM ratio (pull-down/input)
15,GATGATTGTTCTCCCAGCTGATGAATTCAGACAATCGAGTAAACAAATTTTCCTAATCTTTCTGTTCAAGCGCCATCTAC,1.15 RPM ratio (pull-down/input)
16,GATGATTGTTCTCCCAGCTGATGAATTACTCTTTTCGAGTAAACAAATTTTCCTAATCTTTCTGTTCAAGCGCCATCTAC,1.08 RPM ratio (pull-down/input)
17,GATGATTGTTCTCCCAGCTGATGAATTGTGTAGTTCGAGTAAACAAATTTTCCTAATCTTTCTGTTCAAGCGCCATCTAC,1.38 RPM ratio (pull-down/input)
18,GATGATTGTTCTCCCAGCTGATGAATTCATTGATTCGAGTAAACAAATTTTCCTAATCTTTCTGTTCAAGCGCCATCTAC,1.03 RPM ratio (pull-down/input)
19,GATGATTGTTCTCCCAGCTGATGAATTATGCGAGTCGAGTAAACAAATTTTCCTAATCTTTCTGTTCAAGCGCCATCTAC,0.95 RPM ratio (pull-down/input)
20,GATGATTGTTCTCCCAGCTGATGAATTTGGGTTGTCGAGTAAACAAATTTTCCTAATCTTTCTGTTCAAGCGCCATCTAC,0.959 RPM ratio (pull-down/input)
21,GATGATTGTTCTCCCAGCTGATGAATTGATTAACTCGAGTAAACAAATTTTCCTAATCTTTCTGTTCAAGCGCCATCTAC,1.04 RPM ratio (pull-down/input)

row,Sequence,binding signal
1,GATGATTGTTCTCCCAGCTGATGAATTCAATTATTCGAGTAAACAAATTTTCCTAATCTTTCTGTTCAAGCGCCATCTAC,1.12 RPM ratio (pull-down/input)
2,GATGATTGTTCTCCCAGCTGATGAATTGCCAGATTCGAGTAAACAAATTTTCCTAATCTTTCTGTTCAAGCGCCATCTAC,0.901 RPM ratio (pull-down/input)
3,GATGATTGTTCTCCCAGCTGATGAATTTCCCTATTCGAGTAAACAAATTTTCCTAATCTTTCTGTTCAAGCGCCATCTAC,0.889 RPM ratio (pull-down/input)
4,GATGATTGTTCTCCCAGCTGATGAATTTATGCGTTCGAGTAAACAAATTTTCCTAATCTTTCTGTTCAAGCGCCATCTAC,1.3 RPM ratio (pull-down/input)
5,GATGATTGTTCTCCCAGCTGATGAATTGCAAGGCTCGAGTAAACAAATTTTCCTAATCTTTCTGTTCAAGCGCCATCTAC,1.02 RPM ratio (pull-down/input)
6,GATGATTGTTCTCCCAGCTGATGAATTCGCCTTGTCGAGTAAACAAATTTTCCTAATCTTTCTGTTCAAGCGCCATCTAC,0.89 RPM ratio (pull-down/input)
7,GATGATTGTTCTCCCAGCTGATGAATTCAGATGGTCGAGTAAACAAATTTTCCTAATCTTTCTGTTCAAGCGCCATCTAC,0.816 RPM ratio (pull-down/input)
8,GATGATTGTTCTCCCAGCTGATGAATTTTTCTTCTCGAGTAAACAAATTTTCCTAATCTTTCTGTTCAAGCGCCATCTAC,0.898 RPM ratio (pull-down/input)
9,GATGATTGTTCTCCCAGCTGATGAATTCCTATGTTCGAGTAAACAAATTTTCCTAATCTTTCTGTTCAAGCGCCATCTAC,1.06 RPM ratio (pull-down/input)
10,GATGATTGTTCTCCCAGCTGATGAATTAGGAATCTCGAGTAAACAAATTTTCCTAATCTTTCTGTTCAAGCGCCATCTAC,0.857 RPM ratio (pull-down/input)
11,GATGATTGTTCTCCCAGCTGATGAATTTGGAGTATCGAGTAAACAAATTTTCCTAATCTTTCTGTTCAAGCGCCATCTAC,0.963 RPM ratio (pull-down/input)
12,GATGATTGTTCTCCCAGCTGATGAATTTTATGTGTCGAGTAAACAAATTTTCCTAATCTTTCTGTTCAAGCGCCATCTAC,1.13 RPM ratio (pull-down/input)
13,GATGATTGTTCTCCCAGCTGATGAATTATGTTCCTCGAGTAAACAAATTTTCCTAATCTTTCTGTTCAAGCGCCATCTAC,1.04 RPM ratio (pull-down/input)
14,GATGATTGTTCTCCCAGCTGATGAATTGAATTTGTCGAGTAAACAAATTTTCCTAATCTTTCTGTTCAAGCGCCATCTAC,0.98 RPM ratio (pull-down/input)
15,GATGATTGTTCTCCCAGCTGATGAATTGGATGCATCGAGTAAACAAATTTTCCTAATCTTTCTGTTCAAGCGCCATCTAC,1.45 RPM ratio (pull-down/input)
16,GATGATTGTTCTCCCAGCTGATGAATTGGGGTGCTCGAGTAAACAAATTTTCCTAATCTTTCTGTTCAAGCGCCATCTAC,0.852 RPM ratio (pull-down/input)
17,GATGATTGTTCTCCCAGCTGATGAATTTCAAGGCTCGAGTAAACAAATTTTCCTAATCTTTCTGTTCAAGCGCCATCTAC,0.74 RPM ratio (pull-down/input)
18,GATGATTGTTCTCCCAGCTGATGAATTGTGAAAGTCGAGTAAACAAATTTTCCTAATCTTTCTGTTCAAGCGCCATCTAC,1.01 RPM ratio (pull-down/input)
19,GATGATTGTTCTCCCAGCTGATGAATTCGGTGTTTCGAGTAAACAAATTTTCCTAATCTTTCTGTTCAAGCGCCATCTAC,1.04 RPM ratio (pull-down/input)
20,GATGATTGTTCTCCCAGCTGATGAATTAACGAGCTCGAGTAAACAAATTTTCCTAATCTTTCTGTTCAAGCGCCATCTAC,0.81 RPM ratio (pull-down/input)
21,GATGATTGTTCTCCCAGCTGATGAATTTGCTTGATCGAGTAAACAAATTTTCCTAATCTTTCTGTTCAAGCGCCATCTAC,1.12 RPM ratio (pull-down/input)

row,Sequence,binding signal
1,GATGATTGTTCTCCCAGCTGATGAATTCGAGAGTTCGAGTAAACAAATTTTCCTAATCTTTCTGTTCAAGCGCCATCTAC,0.759 RPM ratio (pull-down/input)
2,GATGATTGTTCTCCCAGCTGATGAATTGGCGTATTCGAGTAAACAAATTTTCCTAATCTTTCTGTTCAAGCGCCATCTAC,1.03 RPM ratio (pull-down/input)
3,GATGATTGTTCTCCCAGCTGATGAATTTACTTAGTCGAGTAAACAAATTTTCCTAATCTTTCTGTTCAAGCGCCATCTAC,1.44 RPM ratio (pull-down/input)
4,GATGATTGTTCTCCCAGCTGATGAATTGTCCAAGTCGAGTAAACAAATTTTCCTAATCTTTCTGTTCAAGCGCCATCTAC,0.936 RPM ratio (pull-down/input)
5,GATGATTGTTCTCCCAGCTGATGAATTTCTGCCATCGAGTAAACAAATTTTCCTAATCTTTCTGTTCAAGCGCCATCTAC,0.889 RPM ratio (pull-down/input)
6,GATGATTGTTCTCCCAGCTGATGAATTCTTACGTTCGAGTAAACAAATTTTCCTAATCTTTCTGTTCAAGCGCCATCTAC,0.856 RPM ratio (pull-down/input)
7,GATGATTGTTCTCCCAGCTGATGAATTAGTAAGCTCGAGTAAACAAATTTTCCTAATCTTTCTGTTCAAGCGCCATCTAC,1.06 RPM ratio (pull-down/input)
8,GATGATTGTTCTCCCAGCTGATGAATTAACGAATTCGAGTAAACAAATTTTCCTAATCTTTCTGTTCAAGCGCCATCTAC,1.03 RPM ratio (pull-down/input)
9,GATGATTGTTCTCCCAGCTGATGAATTTTTCGCCTCGAGTAAACAAATTTTCCTAATCTTTCTGTTCAAGCGCCATCTAC,0.998 RPM ratio (pull-down/input)
10,GATGATTGTTCTCCCAGCTGATGAATTTTACCAGTCGAGTAAACAAATTTTCCTAATCTTTCTGTTCAAGCGCCATCTAC,0.907 RPM ratio (pull-down/input)
11,GATGATTGTTCTCCCAGCTGATGAATTAGTCATTTCGAGTAAACAAATTTTCCTAATCTTTCTGTTCAAGCGCCATCTAC,1.06 RPM ratio (pull-down/input)
12,GATGATTGTTCTCCCAGCTGATGAATTCTGACTTTCGAGTAAACAAATTTTCCTAATCTTTCTGTTCAAGCGCCATCTAC,0.897 RPM ratio (pull-down/input)
13,GATGATTGTTCTCCCAGCTGATGAATTGCTTCGATCGAGTAAACAAATTTTCCTAATCTTTCTGTTCAAGCGCCATCTAC,0.968 RPM ratio (pull-down/input)
14,GATGATTGTTCTCCCAGCTGATGAATTTTTATGGTCGAGTAAACAAATTTTCCTAATCTTTCTGTTCAAGCGCCATCTAC,0.875 RPM ratio (pull-down/input)
15,GATGATTGTTCTCCCAGCTGATGAATTTAGGATGTCGAGTAAACAAATTTTCCTAATCTTTCTGTTCAAGCGCCATCTAC,0.992 RPM ratio (pull-down/input)
16,GATGATTGTTCTCCCAGCTGATGAATTGTAGAGATCGAGTAAACAAATTTTCCTAATCTTTCTGTTCAAGCGCCATCTAC,0.898 RPM ratio (pull-down/input)
17,GATGATTGTTCTCCCAGCTGATGAATTAGTTGTATCGAGTAAACAAATTTTCCTAATCTTTCTGTTCAAGCGCCATCTAC,1.41 RPM ratio (pull-down/input)
18,GATGATTGTTCTCCCAGCTGATGAATTGAAGCGGTCGAGTAAACAAATTTTCCTAATCTTTCTGTTCAAGCGCCATCTAC,0.79 RPM ratio (pull-down/input)
19,GATGATTGTTCTCCCAGCTGATGAATTGAATATCTCGAGTAAACAAATTTTCCTAATCTTTCTGTTCAAGCGCCATCTAC,0.802 RPM ratio (pull-down/input)
20,GATGATTGTTCTCCCAGCTGATGAATTCTCATACTCGAGTAAACAAATTTTCCTAATCTTTCTGTTCAAGCGCCATCTAC,0.821 RPM ratio (pull-down/input)
21,GATGATTGTTCTCCCAGCTGATGAATTCAGTGACTCGAGTAAACAAATTTTCCTAATCTTTCTGTTCAAGCGCCATCTAC,0.872 RPM ratio (pull-down/input)
